# In the BET-seq Pho4 binding data (Le et al. 2018):
# The other results are listed elsewhere or left out. These are noisy estimates, calculated here from bound and input reads.
# Target: T1, Pho4 (S. cerevisiae) (UniProt P07270)
# T1 sequence: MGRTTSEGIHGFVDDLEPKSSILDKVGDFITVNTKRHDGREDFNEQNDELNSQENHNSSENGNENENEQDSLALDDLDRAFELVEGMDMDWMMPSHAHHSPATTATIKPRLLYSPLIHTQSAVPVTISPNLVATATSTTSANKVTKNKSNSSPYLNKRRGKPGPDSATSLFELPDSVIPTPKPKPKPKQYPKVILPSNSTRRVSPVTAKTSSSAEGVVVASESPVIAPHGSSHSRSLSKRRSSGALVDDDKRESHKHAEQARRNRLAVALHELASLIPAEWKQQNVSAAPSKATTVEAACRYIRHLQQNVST
# Assay: relative binding free energy (BET-seq); higher = weaker binding
# Details: reference: library average
row,Sequence,relative binding free energy
1,TGAGTCACGTGTGCTC,0.15 kcal/mol
2,TGTCACACGTGTTTAG,0.09 kcal/mol
3,TGTTTCACGTGGGGTC,0.16 kcal/mol
4,TAAGACACGTGTGGAA,0.09 kcal/mol
5,GGGTACACGTGGAGAA,0.17 kcal/mol
6,GATTACACGTGATGGT,0.23 kcal/mol
7,GGTGGCACGTGTGTGT,-0.02 kcal/mol
8,GATGGCACGTGGCGTG,-0.03 kcal/mol
9,TGGCTCACGTGGCTTG,0.2 kcal/mol
10,TGGTACACGTGGGTGT,-0.03 kcal/mol
11,AGTGTCACGTGTCGGT,0.13 kcal/mol
12,CAGGACACGTGTGGAG,0.08 kcal/mol
13,CTGTGCACGTGGCCGG,-0.03 kcal/mol
14,TGCAGCACGTGTGTGG,-0.06 kcal/mol
15,TAGATCACGTGTGCTT,0.08 kcal/mol
16,ATTATCACGTGTGCAG,0.17 kcal/mol
17,TTAGTCACGTGGTCTG,-0.13 kcal/mol
18,CAGGGCACGTGGGTGC,-0.21 kcal/mol
19,GGCTTCACGTGTGGAT,0.29 kcal/mol
20,TTGCGCACGTGGTGTC,-0.28 kcal/mol
21,TGGGCCACGTGGGTGG,-0.25 kcal/mol
22,TCCTTCACGTGTGTTG,0.21 kcal/mol
23,CATGGCACGTGTGTAT,-0.14 kcal/mol
24,GAAAGCACGTGTAGGT,-0.21 kcal/mol
25,TTGTACACGTGGTATG,-0.05 kcal/mol
26,GGGACCACGTGTTTGG,0.09 kcal/mol

row,Sequence,relative binding free energy
1,GATTGCACGTGTGATA,0.18 kcal/mol
2,GAATTCACGTGTGTTA,0.45 kcal/mol
3,GGGGTCACGTGAGACG,0.24 kcal/mol
4,ATAGGCACGTGGCGTA,-0.28 kcal/mol
5,AGTGTCACGTGTGGAT,0.08 kcal/mol
6,TCCTTCACGTGGGTAG,0.19 kcal/mol
7,TCCTGCACGTGGTGGG,-0.13 kcal/mol
8,AGGTGCACGTGCTGTT,-0.09 kcal/mol
9,ATAGGCACGTGGCGGC,-0.21 kcal/mol
10,TGGTGCACGTGTTCAG,-0.09 kcal/mol
11,TTAGGCACGTGGAAGG,-0.02 kcal/mol
12,CTTAGCACGTGTGTGT,-0.05 kcal/mol
13,CTGAGCACGTGTTGAT,0.02 kcal/mol
14,TTTCTCACGTGAAGGT,0.33 kcal/mol
15,GTTAGCACGTGATTTA,0.04 kcal/mol
16,GACTGCACGTGGGGTT,-0.13 kcal/mol
17,ATGATCACGTGGTCTT,0.15 kcal/mol
18,GAAAGCACGTGGGTGT,-0.1 kcal/mol
19,AGGTACACGTGGGTGG,-0.08 kcal/mol
20,TCGAGCACGTGGTTTG,-0.21 kcal/mol
21,ATATGCACGTGAGGTT,0.11 kcal/mol
22,TGTGACACGTGGGTTG,-0.08 kcal/mol
23,TAATGCACGTGAGTTG,0.13 kcal/mol
24,AATTACACGTGTGTTA,-0.03 kcal/mol
25,GGGTACACGTGTTGGT,0.18 kcal/mol
26,TTTATCACGTGACGAT,0.36 kcal/mol

row,Sequence,relative binding free energy
1,GGATACACGTGCGTGT,-0.01 kcal/mol
2,TGAAACACGTGTGTAG,-0.02 kcal/mol
3,TTAGTCACGTGGGCGG,0 kcal/mol
4,TGGGACACGTGTCTTT,0.21 kcal/mol
5,TTGGACACGTGTCGCG,0.07 kcal/mol
6,TCTGTCACGTGTTAAA,0.18 kcal/mol
7,ATGTCCACGTGTTAAT,0.06 kcal/mol
8,ATAAGCACGTGTGCTA,0.02 kcal/mol
9,CGTGCCACGTGAGGGT,0.04 kcal/mol
10,CGTGTCACGTGGACGG,0.17 kcal/mol
11,AAAGTCACGTGGTGGT,0.03 kcal/mol
12,AGTTGCACGTGAGGGG,0.27 kcal/mol
13,TGGGACACGTGGTACG,-0.11 kcal/mol
14,CTTTTCACGTGGGATC,0.19 kcal/mol
15,ATTAGCACGTGTGCGA,-0.1 kcal/mol
16,GTCGTCACGTGGTATT,0.02 kcal/mol
17,TAGTTCACGTGATGAA,0.19 kcal/mol
18,TCGTTCACGTGTGGAA,0.26 kcal/mol
19,TTTGTCACGTGACGCG,0.23 kcal/mol
20,GGGACCACGTGGGGAA,-0.06 kcal/mol
21,GAGAACACGTGTGGAG,0.14 kcal/mol
22,GTTAGCACGTGATGGA,0.09 kcal/mol
23,GTTTGCACGTGGCAGG,0.12 kcal/mol
24,GGTCCCACGTGGTGTG,-0.12 kcal/mol
25,CAGGACACGTGCGTGG,0.03 kcal/mol
26,TTGGTCACGTGCAGTT,0.11 kcal/mol

row,Sequence,relative binding free energy
1,TGTATCACGTGGGTCT,0.01 kcal/mol
2,AGTATCACGTGAGTTG,0.36 kcal/mol
3,TTGTGCACGTGAAAGG,0.23 kcal/mol
4,AAGTTCACGTGGCTTT,0.1 kcal/mol
5,GGTAACACGTGGTTAA,-0.09 kcal/mol
6,GACGTCACGTGTAGTT,0.43 kcal/mol
7,TGTTTCACGTGTGAGA,0.32 kcal/mol
8,TCTGTCACGTGTAGGG,0.15 kcal/mol
9,TAGGGCACGTGAGCGA,-0.07 kcal/mol
10,GTGTGCACGTGACTGG,0.13 kcal/mol
11,TGAAGCACGTGGTTAT,-0.09 kcal/mol
12,TAGTGCACGTGCCGGG,-0.06 kcal/mol
13,TGGGTCACGTGAAAAT,0.43 kcal/mol
14,TATATCACGTGATCGT,0.25 kcal/mol
15,CGGCTCACGTGGGTCG,0.14 kcal/mol
16,GTGGGCACGTGATAAA,0.11 kcal/mol
17,AATAGCACGTGCAGGG,-0.07 kcal/mol
18,ACTTACACGTGAGGGG,0.14 kcal/mol
19,ATTTTCACGTGCTAAT,0.23 kcal/mol
20,AATCGCACGTGGTGGT,-0.31 kcal/mol
21,GTGGACACGTGTTGCG,-0.06 kcal/mol
22,TTGGACACGTGTCTTA,0.03 kcal/mol
23,TAAGTCACGTGTTACA,0.13 kcal/mol
24,GTGATCACGTGTACGG,0.24 kcal/mol
25,GTTGGCACGTGGTCGA,-0.2 kcal/mol
26,GAGTTCACGTGATAGG,0.36 kcal/mol

row,Sequence,relative binding free energy
1,ACGGACACGTGGGGAT,-0.12 kcal/mol
2,TCAGTCACGTGGGAGT,-0.1 kcal/mol
3,CGGTTCACGTGACTGG,0.34 kcal/mol
4,TGATACACGTGGCGGA,0.12 kcal/mol
5,GGATGCACGTGGAGGG,-0.17 kcal/mol
6,TATGTCACGTGGGGTC,0 kcal/mol
7,GTATCCACGTGTGGGA,0.12 kcal/mol
8,GTTCACACGTGTGTAT,0.22 kcal/mol
9,TAAGGCACGTGGTTTT,-0.07 kcal/mol
10,GAGGCCACGTGGCGGT,-0.11 kcal/mol
11,GGGAACACGTGAGAGG,0.32 kcal/mol
12,TGGATCACGTGAATTG,0.3 kcal/mol
13,TTGAGCACGTGCCGTG,0.03 kcal/mol
14,TCATGCACGTGGTTAT,-0.26 kcal/mol
15,TTCGACACGTGGTATG,-0.04 kcal/mol
16,TTTTTCACGTGTACGT,0.36 kcal/mol
17,TCGGTCACGTGTAATT,0.2 kcal/mol
18,GGGTGCACGTGGCTGT,-0.03 kcal/mol
19,ATATTCACGTGGATGA,0.18 kcal/mol
20,GGGTTCACGTGTCACG,0.23 kcal/mol
21,TGAAGCACGTGGGGCG,-0.27 kcal/mol
22,GGTGACACGTGGTCTC,0 kcal/mol
23,TTTCTCACGTGGACGG,0.31 kcal/mol
24,TATGTCACGTGCAAAG,0.2 kcal/mol
25,AAGAACACGTGTGGTG,0 kcal/mol
26,GTTCGCACGTGGTTTC,0.01 kcal/mol

row,Sequence,relative binding free energy
1,AGGATCACGTGGATTG,0.26 kcal/mol
2,AACGTCACGTGGTGTG,0.03 kcal/mol
3,CAAGGCACGTGAGAGT,0.19 kcal/mol
4,GACAGCACGTGCGGGT,0.05 kcal/mol
5,GTTGTCACGTGATGTT,0.38 kcal/mol
6,AATGGCACGTGGTACG,-0.2 kcal/mol
7,TTAGCCACGTGTGGAG,0.02 kcal/mol
8,GCTCGCACGTGGTTGT,-0.04 kcal/mol
9,GGTATCACGTGTCTGG,0.08 kcal/mol
10,ATATGCACGTGAAGTA,0.14 kcal/mol
11,ATGTTCACGTGGGGGG,0.14 kcal/mol
12,ACGTACACGTGGGGGT,-0.17 kcal/mol
13,ATTGGCACGTGCCGTT,-0.2 kcal/mol
14,AGTTTCACGTGGAAAG,0.26 kcal/mol
15,CGTGTCACGTGGGTCT,-0.08 kcal/mol
16,AAGGGCACGTGTGAGC,0.02 kcal/mol
17,TATTTCACGTGGAGCT,0.09 kcal/mol
18,CATTTCACGTGTAGGT,0.27 kcal/mol
19,TGGGACACGTGTGGAA,0.22 kcal/mol
20,GTTAACACGTGGTGGA,-0.16 kcal/mol
21,AGATGCACGTGGGATG,-0.09 kcal/mol
22,GGCGTCACGTGGGTTC,0.13 kcal/mol
23,TTTAGCACGTGAAAAG,0.43 kcal/mol
24,CGGTGCACGTGCTTGG,-0.02 kcal/mol
25,TCAGTCACGTGGCAGG,-0.03 kcal/mol
26,TAGGGCACGTGGGCGA,-0.24 kcal/mol

row,Sequence,relative binding free energy
1,TATGGCACGTGATTTA,0 kcal/mol
2,TGGAGCACGTGGTCAA,-0.18 kcal/mol
3,TTGGGCACGTGCTTGG,-0.23 kcal/mol
4,GAGTTCACGTGTGATT,0.58 kcal/mol
5,ATCTACACGTGGTTTG,0.05 kcal/mol
6,GTGGACACGTGCTGTG,-0.01 kcal/mol
7,ACATGCACGTGTGTTT,0.01 kcal/mol
8,TGTCCCACGTGTGGGT,-0.07 kcal/mol
9,TGCTTCACGTGGAAGG,0.2 kcal/mol
10,CATATCACGTGTTTAG,0.13 kcal/mol
11,AGAGACACGTGGTTAG,0.01 kcal/mol
12,GATTTCACGTGGGAGC,0.48 kcal/mol
13,AGTTGCACGTGAATGG,0.25 kcal/mol
14,CAGAGCACGTGTGGTG,-0.09 kcal/mol
15,TGTAACACGTGGAAGT,0.07 kcal/mol
16,AAAGGCACGTGAGTAG,0.07 kcal/mol
17,CTTTCCACGTGGGGGG,-0.2 kcal/mol
18,TAATGCACGTGATGTT,0.05 kcal/mol
19,ATCTGCACGTGATTGA,0.17 kcal/mol
20,ATGCTCACGTGTGGGT,0.21 kcal/mol
21,GTAGTCACGTGCAGGA,0.15 kcal/mol
22,GATCGCACGTGTAGTT,0.07 kcal/mol
23,GAAGACACGTGTGGTT,0.19 kcal/mol
24,AGATTCACGTGTGTAG,0.27 kcal/mol
25,TGGGTCACGTGTTGTT,0.16 kcal/mol
26,GGCGTCACGTGATTTG,0.38 kcal/mol

row,Sequence,relative binding free energy
1,GCGGTCACGTGGTTAT,-0.08 kcal/mol
2,TTTGGCACGTGCCTGG,-0.37 kcal/mol
3,GGGGGCACGTGGAGAG,-0.06 kcal/mol
4,TGCCACACGTGTTTTG,0.34 kcal/mol
5,TGGTACACGTGTATTG,0.06 kcal/mol
6,TGTTCCACGTGTGAGC,0.24 kcal/mol
7,TATGCCACGTGTTAGG,-0.15 kcal/mol
8,AATTGCACGTGCATGG,-0.12 kcal/mol
9,TGGATCACGTGGGGGA,0.05 kcal/mol
10,GTATTCACGTGGCATA,0.16 kcal/mol
11,ATATTCACGTGTTTCT,0.21 kcal/mol
12,GGAAACACGTGAGCGG,0.24 kcal/mol
13,GGTGTCACGTGCTGTG,0.03 kcal/mol
14,TTTAACACGTGGATAT,0.07 kcal/mol
15,ATGCGCACGTGTGAGT,-0.09 kcal/mol
16,GTGTGCACGTGTGACG,0.13 kcal/mol
17,TGGTGCACGTGCTAAT,-0.03 kcal/mol
18,GGGGGCACGTGTACGG,-0.02 kcal/mol
19,TACGGCACGTGGAAGG,-0.06 kcal/mol
20,AAACGCACGTGTGGGG,-0.07 kcal/mol
21,ACTTTCACGTGATTGT,0.28 kcal/mol
22,AGGTCCACGTGTGGAA,0.12 kcal/mol
23,GGTGTCACGTGTTTAG,0.17 kcal/mol
24,TCATGCACGTGAGTTG,0.12 kcal/mol
25,AGGGACACGTGGTTGC,0.03 kcal/mol
26,TATAACACGTGGATTG,0.08 kcal/mol

row,Sequence,relative binding free energy
1,AAGTTCACGTGTGTAG,0.31 kcal/mol
2,TGGTTCACGTGTCTGC,0.25 kcal/mol
3,CGTGGCACGTGGGTTA,-0.15 kcal/mol
4,AGCAGCACGTGGGCGG,-0.27 kcal/mol
5,TAAATCACGTGTGTGA,0.24 kcal/mol
6,CAATTCACGTGGGTGG,0.17 kcal/mol
7,ATGGGCACGTGTATGC,-0.09 kcal/mol
8,TATTGCACGTGTGGCG,0.05 kcal/mol
9,GTAAGCACGTGTGTTG,-0.03 kcal/mol
10,GTCGACACGTGGAGTT,0.23 kcal/mol
11,AGAGGCACGTGTATGT,-0.1 kcal/mol
12,TTGCCCACGTGGGGTT,-0.28 kcal/mol
13,GGGGTCACGTGGAACT,0.19 kcal/mol
14,TAGGGCACGTGAGATT,0.22 kcal/mol
15,ACGGACACGTGGGGTA,-0.1 kcal/mol
16,AGTAGCACGTGGCTGT,-0.13 kcal/mol
17,CATAGCACGTGCGGGG,-0.21 kcal/mol
18,GGGCTCACGTGGGTTA,0.05 kcal/mol
19,TGGTGCACGTGCATTA,-0.1 kcal/mol
20,TTCGACACGTGATGGG,0.17 kcal/mol
21,GAGGTCACGTGGTGAC,0.07 kcal/mol
22,GTGGGCACGTGAGAGG,0.19 kcal/mol
